# In the supplement of paper PMC11417369:
# ± gives the standard deviation of the averaged measurements. This is one part of the list.
# System: PfAP2-LT AP2 domain (GST-tagged)
# Experiment: gcPBM binding intensity (ln(normalized median fluorescence intensity)); higher = stronger DNA binding
# Procedure, shortened: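 GST-fused DNA-binding domains of P. falciparum, expressed in E. coli, were applied at about 25 μg on average for 1 h to an Agilent 4 × 180k array of primer-extended double-stranded 36-bp intergenic genomic probes and negative controls. Binding intensity is the highest Masliner-normalised natural-log median intensity across replicate spots of either probe orientation, measured with Alexa488 anti-GST antibody and a 488 nm scan.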
row,Sequence,gcPBM binding intensity (ln)
1,TTTAATCATTTTATTTGTACTCATAAAAAATATAAT [XGTACX_site5537],8.3 ± 0.5
2,AAAAAATATAAAAAAAGTACACAAAAACTACAAAAA [XGTACX_site2677],8.91 ± 0.51
3,TAATTTCCTTAAGAATGTACTTACATTTTATTATTT [XGTACX_site5998],8.56 ± 0.56
4,ATGGACAAGTTAAACGCACACAAATATATACAGACA [CACACA_site1652],9.63 ± 0.47
5,GTTTATGTATTATTATGTACGTATCATAATATATAT [XGTACX_site2385],8.99 ± 0.41
6,TAATATGAAATGTGTACACACGCACCCACAAAAAAA [CACACA_site8949],9.36 ± 0.35
7,TCTGTAAACATATTCACACACATAAATTCGCATATA [CACACA_site1866],9.17 ± 0.27
8,ACAAAATAATTGTTTACACACCCATTTGTAATTTTA [CACACA_site3615],8.84 ± 0.42
9,GAAAATTTATATTGCACACATAGGGAATAAAAAAAA [CACACA_site2146],9.13 ± 0.42
10,TATCATTGTTCATGCTTGCACTTTTGTTACTGTTCC [GTGCAC_site9425],9.04 ± 0.52
11,TGTATGAAAATAAATGCATGCCAAATATATATATAT [TGCATGCA_site132],9.165 ± 0.078
12,AAAATGAAATATGTTATATATATATATATATATATA [CACACA_negctrl_site1752],9.48 ± 0.14
13,AAGAAGAAACGGAAAAGTACAAAGAAGAAATAAGTA [XGTACX_site3680],9.05 ± 0.64
14,CTTACAGACATATATACACACATGTATATTTTATAT [CACACA_site549],9.12 ± 0.35
15,ATGTTTTTAATTTATTGTACATTAATTTGTATTATT [XGTACX_site253],9.07 ± 0.55
16,TTTTCTTTTCTCTTCTTTTTCTCCCATTATTAATCT [XGTACX_negctrl_site406],8.6 ± 0.67
17,GAGGATGCCTATGGCACACATTATAAAACTGTCGCT [CACACA_site4322],8.92 ± 0.45
18,TTTTTATTATTTAAATGTACATATAAATATATATAT [XGTACX_site6870],8.53 ± 0.4
19,GAATAAAAATTTTAATGTACATATTTTTTATTTATA [XGTACX_site8935],8.41 ± 0.49

row,Sequence,gcPBM binding intensity (ln)
1,ATATTTTATATGTTCACACATACATAAACATATTTT [CACACA_site4948],8.83 ± 0.41
2,GGTAGTTATTATCTCCGTACTTATAAAGAAAAAAGG [XGTACX_site4674],8.57 ± 0.48
3,TTTATTTTCATATGAACACACATATAAATATTATAA [CACACA_site7172],8.69 ± 0.54
4,TACAAATATATAAAATGTACATATATATACATATTA [XGTACX_site3029],8.63 ± 0.38
5,CATAAAATTGTGAAGTGTACATATTTTTAAATATAA [XGTACX_site8986],8.65 ± 0.47
6,ATATATAATATAAGATGTACAATAAAATCTATATAT [XGTACX_site546],8.87 ± 0.53
7,ATAACTTTATTTTCCTGTACACACATTTGACATATT [XGTACX_site7192],9.38 ± 0.4
8,AGAAATATCTAATTGTGTACTCAAGAAAAAGTTACG [XGTACX_site372],8.65 ± 0.47
9,TATATATCGCATAAAACACACAAAAAAAAAATTAAA [CACACA_site7767],8.84 ± 0.51
10,TTATATTCTATTTATTGTACTTAAATATATATATAT [XGTACX_site6400],8.7 ± 0.42
11,ATATATATCTTTTGTGTGCACATATATATAATATAT,9.79 ± 0.31
12,AAAAAAAAAATATACACACACACATACACATAAATA [CACACA_site3808],9.92 ± 0.21
13,TATTTTCCCTCCATATGTACTTAATTATAAGCACAT [XGTACX_site4000],8.82 ± 0.35
14,ATTTCATTTATAAGGATATCTACTTTTTATTTTAAT [GTGCAC_negctrl_site59],8.58 ± 0.51
15,TCTATCTTTTCCAAACGTACATTTTTTATATAAATT [XGTACX_site5352],8.63 ± 0.42
16,AAACGAAAAAAATGGTGTACATTAAAATGAAAATTG [XGTACX_site7040],8.88 ± 0.62
17,TTTTTTTTCCTAATGTGTACTAAAAATGAACAATAA [XGTACX_site5248],8.15 ± 0.4
18,AACATTATTTTGTGTACACATTCGGTTATATTATAT [CACACA_site5628],9.24 ± 0.33
19,TTTTTTATTTTATTTTATTTTTATTTTTTTTTTTTT [GTGCAC_negctrl_site596],8.45 ± 0.64

row,Sequence,gcPBM binding intensity (ln)
1,AAAAAAAAGAAACACACACACATACACATAAATATA [CACACA_site3807],9.84 ± 0.38
2,ATATTTTTTTCATAGACACACACAATATATCTGTTT [CACACA_site8993],9.4 ± 0.38
3,ACTTTATTTTCCTGTACACACATTTGACATATTAAA [CACACA_site3378],9.26 ± 0.3
4,CACCAAACTAAATGTACACACATACATAAATATAAA [CACACA_site4765],9.21 ± 0.46
5,AAAAACAAAAAAAAAACACACAATTCTAGTTATTTT [CACACA_site2767],8.68 ± 0.49
6,ATATATTCCATAAAGGTGCTGTTAACGTGTCAACGT [GTGCAC_site9402],8.67 ± 0.38
7,TTTATGTAAAAATATAGTACATATTAAAAGATAAGA [XGTACX_site8134],8.66 ± 0.44
8,TAAGTATACACATACACACACACACTAAAAAAAAAA [CACACA_site6337],10 ± 0.3
9,TTTTACTTAAGACACACACACACAAAAAAAAAAAAA [CACACA_site6573],9.58 ± 0.4
10,TAAACATAAATATGCACACATATACAGATATTCATA [CACACA_site5471],9.07 ± 0.42
11,ATAAAATACATATAAACACACATATAAACCGACATA [CACACA_site2477],9.28 ± 0.38
12,AGTTTTTACTCTAATGGTACAGTGCAACTAATAAAT [XGTACX_site6950],8.6 ± 0.38
13,TTTAAATATTTTAATACACACACGATATGTACAAAA [CACACA_site4455],8.88 ± 0.36
14,TACAATGAAAAAATAACATGCAATTATATTTCTCTT [TGCATGCA_site833],8.66 ± 0.48
15,TATATATATATATATTGTACTAGTGCATATATATAC [XGTACX_site7926],9.46 ± 0.3
16,ACGTGATAAATAAATACATGCATAGAAAGATGCATA [TGCATGCA_site91],9.03 ± 0.47
17,ATTAAATTTCCTTGAGTGCACATTTTGTTAAAATAT,8.69 ± 0.49
18,ATAACATATTTCTTTTGTACTCAAAATAAAATTAAT [XGTACX_site2479],8.37 ± 0.4
19,AATTTTGTTGAGCACACACACATACATACATACATA [CACACA_site3154],9.63 ± 0.35
